Reference: the supplement of paper PMC9446081
The whole screen tested about 39,000 compounds, of which about 220 (0.56%) showed activity. The list shows a part of the results.

System: Escherichia coli K-12 BW25113
Test: relative growth (OD600 normalised to plate interquartile mean) (fraction); higher = less growth inhibition, active = 0.2 or less
Settings: 50 µM; LB; incubation time: overnight (16-24 h)
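Further: static incubation at 37 °C against the wild-type strain, values averaged over two biological replicates.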

Row | Compound | relative growth
1 | CCCC(=O)Nc1ccc(-c2nc3cc(C(C)C)ccc3o2)cc1 | inactive: 1.05
2 | COc1ccc2c3c(n(c2c1)C)[C@H](CO)N(C[C@]13CCN(CC1)Cc1ccccc1F)C(=O)Nc1ccc(cc1)F | inactive: 0.999
3 | CC(C)NC(=O)N(C)C[C@@H]1Oc2ccc(NC(=O)NC3CCCCC3)cc2CC(=O)N([C@@H](C)CO)C[C@@H]1C | inactive: 0.956
4 | CN1CCN(C(=O)C[C@H]2C=C[C@@H](NC(=O)Cc3ccccn3)[C@H](CO)O2)CC1 | inactive: 1.01
5 | COc1ccccc1CN1C(=O)c2ccccc2[C@](Cc2ccccc2I)(C(=O)NCCN2CCOCC2)[C@@H]1c1ccc(CO)cc1 | inactive: 0.982
6 | C[C@@H]1CN([C@H](C)CO)C(=O)c2cc(NC(=O)c3ccccc3)ccc2O[C@@H](C)CCCCO[C@H]1CN(C)S(=O)(=O)c1ccc(Cl)cc1 | inactive: 1.04
7 | C[C@@H]1CCCCO[C@H](CN(C)C(=O)Nc2ccccc2)[C@H](C)CN([C@@H](C)CO)C(=O)c2cc(NC(=O)Nc3cccc4ccccc34)ccc2O1 | inactive: 1.02
8 | COc1ccc(S(=O)(=O)N(C)C[C@H]2Oc3ccc(NS(=O)(=O)c4c(C)noc4C)cc3CC(=O)N([C@H](C)CO)C[C@@H]2C)cc1 | inactive: 0.988
9 | C=CCN([C@@H](Cc1ccccc1)[C@@H](O)c1cn(CCCNC(=O)C(=O)NC)nn1)S(=O)(=O)c1ccccc1[N+](=O)[O-] | inactive: 0.991
10 | Cc1cc(C)n(-c2nc3c(c(=O)n(CCN4CCOCC4)c(=O)n3C)n2C)n1 | inactive: 1.01
11 | COc1ccccc1NC(=O)Nc1ccc2c(c1)OC[C@@H](C)N(Cc1ccccc1Cl)C[C@@H](C)[C@H](OC)CN(C)C2=O | inactive: 1.04
12 | CC(C)NC(=O)N(C)C[C@@H]1Oc2c(NS(=O)(=O)c3ccc(Cl)cc3)cccc2C(=O)N([C@H](C)CO)C[C@H]1C | inactive: 1.02
13 | Cc1noc(C)c1S(=O)(=O)Nc1ccc2c(c1)CC(=O)N([C@@H](C)CO)C[C@H](C)[C@H](CN(C)S(=O)(=O)c1cccs1)O2 | inactive: 1.01
14 | C[C@@H]1CCCCO[C@H](CN(C)Cc2ccccc2)[C@H](C)CN([C@@H](C)CO)C(=O)c2cc(NS(=O)(=O)c3cccs3)ccc2O1 | inactive: 0.975
15 | C[C@H](CO)N1C[C@H](C)[C@@H](CN(C)C(=O)Nc2ccc(C(F)(F)F)cc2)Oc2ccc(NC(=O)Nc3ccc(F)cc3)cc2CC1=O | inactive: 1.03
16 | NC1(C(=O)Nc2ccc3nc(-c4ccc(F)cc4)oc3c2)CC1 | inactive: 1
17 | CNC(=O)C[C@H]1CC[C@H]2[C@@H](COC[C@H](O)CN2C(=O)c2ccc3c(c2)OCO3)O1 | inactive: 0.985
18 | C[C@H]1CN([C@@H](C)CO)C(=O)c2cc(NS(=O)(=O)c3ccc(Cl)cc3)ccc2O[C@@H]1CN(C)S(C)(=O)=O | inactive: 1.02
19 | Cc1noc(C)c1S(=O)(=O)N(C)C[C@H]1Oc2ccc(NC(=O)C3CC3)cc2CC(=O)N([C@@H](C)CO)C[C@H]1C | inactive: 1.03
20 | CCC(=O)OCC(=O)C1(OC(=O)CC)C(C)CC2C3CCC4=CC(=O)C=CC4(C)C3(Cl)C(O)CC21C (stereo not given) | inactive: 1

Row | Compound | relative growth
21 | C[C@@H]1CN([C@@H](C)CO)C(=O)c2cccc(NC(=O)Nc3ccc(F)cc3)c2O[C@@H]1CN(C)Cc1ccc(C(F)(F)F)cc1 | inactive: 0.992
22 | C[C@H]1CN([C@@H](C)CO)C(=O)c2cc(NC(=O)CCN3CCOCC3)ccc2O[C@@H]1CN(C)S(=O)(=O)c1cn(C)cn1 | inactive: 1.01
23 | CN(C)CCn1cnc2ccccc2c1=O | inactive: 1.03
24 | O=C(C[C@H]1CC[C@H](NS(=O)(=O)c2ccccc2F)[C@H](CO)O1)NCCCN1CCOCC1 | inactive: 0.979
25 | COc1ccc(-c2coc3cc(OC)ccc3c2=O)cc1 | inactive: 1.07
26 | Cc1ccc(S(=O)(=O)N(C)C[C@@H]2OCCCC[C@H](C)Oc3ccc(NC(=O)Nc4ccc(C(F)(F)F)cc4)cc3C(=O)N([C@@H](C)CO)C[C@H]2C)cc1 | inactive: 1.03
27 | OC[C@@H]1CCCO1 | inactive: 0.986
28 | C[C@H]1CN([C@@H](C)CO)C(=O)c2cccc(NC(=O)C3CC3)c2O[C@H]1CN(C)C(=O)NC1CCCCC1 | inactive: 1.01
29 | Cc1cc(C=Cc2ccc3cc(N(C)C)ccc3[n+]2C)c(C)n1-c1ccccc1.O=C([O-])c1cc2ccccc2c(Cc2c(O)c(C(=O)O)cc3ccccc23)c1O | inactive: 0.996
30 | C[C@@H]1CN([C@@H](C)CO)C(=O)c2cc(NS(C)(=O)=O)ccc2O[C@H]1CN(C)Cc1ccc(C(=O)O)cc1 | inactive: 1.02
31 | C[C@H](CO)N1C[C@H](C)[C@H](CN(C)C(=O)Nc2ccc(F)cc2)OCCCC[C@H](C)Oc2ccc(NC(=O)c3ccncc3)cc2C1=O | inactive: 0.993
32 | C[C@@H]1CN([C@H](C)CO)C(=O)c2cc(NC(=O)Cc3ccccc3)ccc2O[C@@H]1CN(C)Cc1ccc(C(=O)Nc2ccccc2N)cc1 | inactive: 1
33 | C[C@@H]1CN([C@H](C)CO)C(=O)c2cc(NS(=O)(=O)c3ccc(Cl)cc3)ccc2O[C@H]1CN(C)Cc1ccc(Oc2ccccc2)cc1 | inactive: 1.01
34 | NCc1ccccc1Cn1cccn1 | inactive: 0.985
35 | COc1ccc(C#Cc2ccc3c(c2)[C@]2(C(=O)N3)[C@H](C(=O)N3CCc4cc(OC)c(OC)cc4C3)[C@H]3C(=O)O[C@H](c4ccccc4)[C@H](c4ccccc4)N3[C@@H]2c2ccccc2OCCO)cc1 | inactive: 1.02
36 | O=c1n(-c2ccccc2)c(=O)n2n1CC(COc1ccccc1)=C1[C@@H](CCc3ccccc3)OB(O)C[C@@H]12 | inactive: 1
37 | CC1=NN(c2ccccc2)C(=O)C1 | inactive: 0.929
38 | C[C@H]1CN([C@@H](C)CO)C(=O)c2cc(NS(C)(=O)=O)ccc2O[C@H]1CN(C)S(C)(=O)=O | inactive: 0.984
39 | Cc1noc(C)c1S(=O)(=O)Nc1ccc2c(c1)C(=O)N([C@@H](C)CO)C[C@H](C)[C@H](CN(C)Cc1ccc(C(=O)O)cc1)O2 | inactive: 0.962
40 | CCCNC(=O)N1C[C@@H](O)COC[C@H]2O[C@@H](CC(=O)NCc3ccncn3)CC[C@@H]21 | inactive: 1
